Assay results published in article PMC7803741.
These are yes or no findings as the source states them, for the method shown. For some assays here: In cells and extracts the contact can be indirect. Some entries that bind do so weakly or less than the wild type. For some assays here: Sequences can lack the tags named with a protein. One block for each binder: values may come before it.

Protein sequences, listed by entry. Tags and fused reporters are not part of them. Lines headed by an entry give the natural chain unless they say otherwise; changes in a name come on top. Chains listed by the source or under a name are the forms on record and can include a tag or linker. Residues count along the entry.
UniProt P84092: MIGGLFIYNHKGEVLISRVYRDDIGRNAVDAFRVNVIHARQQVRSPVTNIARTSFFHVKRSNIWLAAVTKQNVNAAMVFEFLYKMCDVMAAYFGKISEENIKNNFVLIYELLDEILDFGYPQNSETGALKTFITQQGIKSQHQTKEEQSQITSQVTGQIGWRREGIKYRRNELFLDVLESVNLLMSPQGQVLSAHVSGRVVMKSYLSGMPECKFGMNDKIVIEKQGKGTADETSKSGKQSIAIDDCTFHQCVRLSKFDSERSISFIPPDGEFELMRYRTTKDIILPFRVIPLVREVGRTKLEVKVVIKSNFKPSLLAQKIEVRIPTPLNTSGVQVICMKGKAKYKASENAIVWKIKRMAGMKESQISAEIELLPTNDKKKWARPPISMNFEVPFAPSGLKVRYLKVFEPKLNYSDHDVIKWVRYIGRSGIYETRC
AP2 with N-terminal His6-tag: residues 158-435 of P84092
UniProt Q9DCD6: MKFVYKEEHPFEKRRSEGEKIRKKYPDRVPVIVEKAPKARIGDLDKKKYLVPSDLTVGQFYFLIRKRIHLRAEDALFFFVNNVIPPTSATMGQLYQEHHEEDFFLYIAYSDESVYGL

Key:
[1] = biological target: clathrin adaptor protein AP2 (AP2 μ1 subunit) (rat) (UniProt P84092); experiment: condition: γ2 protein 100-200 μM injected into 10-20 μM AP2; ITC; VP-ITC at 25 °C; 50 mM Tris pH 7.8, 100 mM NaCl, 1 mM EDTA, 1 mM DTT; γ2 subunit protein or peptide (100-200 μM) injected into GABARAP, GABARAPL1 or AP2 (10-20 μM) in the cell; one-site binding model; both purified
GST-GABARAP (mouse) = GST-GABARAP (mouse) (UniProt Q9DCD6); experiment: pull-down; 2 µM purified GST-Atg8 protein incubated with HEK-293 lysate of GFP-tagged γ2 subunit (1% NP-40, 1% DDM), 4 °C; GSH-Sepharose 4B; immunoblot; only the target purified
[2] = biological target: GABAAR-associated protein (GABARAP) (mouse) (UniProt Q9DCD6); experiment: condition: 100–200 μM in the syringe, 10–20 μM in the cell; ITC; VP-ITC, 25 °C; 50 mM Tris pH 7.8, 100 mM NaCl, 1 mM EDTA, 1 mM DTT; γ2 subunit protein or peptide (100–200 μM) injected into GABARAP, GABARAPL1 or AP2 (10–20 μM) in the cell; one-site binding model; both purified
[3] = biological target: clathrin adaptor protein AP2 (AP2 μ1 subunit as printed) (rat) (UniProt P84092); experiment: ITC; VP-ITC, 25 °C; 50 mM Tris pH 7.8, 100 mM NaCl, 1 mM EDTA, 1 mM DTT; γ2 subunit protein or peptide (100–200 μM) injected into GABARAP, GABARAPL1 or AP2 (10–20 μM) in the cell; one-site binding model; both purified
[4] = biological target: GABAAR-associated protein (GABARAP) (mouse) (UniProt Q9DCD6); experiment: ITC; giant ankyrin peptides and GABARAP, compared against γ2-GIM; both purified
[5] = biological target: AP2 with N-terminal His6-tag (rat) (UniProt P84092); experiment: SEC; analytical gel filtration; proteins with N-terminal His6-tag at 100 µM; Superose12 or Superdex200 increase 10/300 GL; 50 mM Tris pH 7.5, 100 mM NaCl, 1 mM EDTA, 1 mM DTT; AP2, GABARAP and γ2-GIM alone, in pairs and all three mixed; both purified

B1: GABAA receptor γ2-GIM Y405E (peptide, UniProt P22723-2 398-415)
chain: ERDEEYGEECLDGKDCAS
- binding [1]: no binding

B7: AnkB-WR peptide (peptide)
peptide: VEEERVIVSDEEIEEARQKAPLEITEY
- binding [4]: binds weakly

B8: GABAA receptor γ2-GIM (398-415) with N-terminal His6-tag (peptide)
chain: ERDEEYGYECLDGKDCAS
- binding [5]: binds

B9: GFP-γ2-GABAAR with a 424–441 deletion (receptor, UniProt P22723-2)
chain: QKSDDDYEDYASNKTWVLTPKVPEGDVTVILNNLLEGYDNKLRPDIGVKPTLIHTDMYVNSIGPVNAINMEYTIDIFFAQTWYDRRLKFNSTIKVLRLNSNMVGKIWIPDTFFRNSKKADAHWITTPNRMLRIWNDGRVLYTLRLTIDAECQLQLHNFPMDEHSCPLEFSSYGYPREEIVYQWKRSSVEVGDTRSWRLYQFSFVGLRNTTEVVKTTSGDYVVMSVYFDLSRRMGYFTIQTYIPCTLIVVLSWVSFWINKDAVPARTSLGITTVLTMTTLSTIARKSLPKVSYVTAMDLFVSVCFIFVFSALVEYGTLHYFVSNRKPSKDKDKKKKNPAPTIDIRPRSATIQMNNATHLQERDEEYGYECLDGKDCASFFCCFEDCSYARIFFPTAFCLFNLVYWVSYLYL
- binding (GST-GABARAP (mouse)): binds

Second part, the binder after the results:

- binding (GST-GABARAP (mouse)): no binding
B2: full length GFP-γ2-GABAAR with a 398–415 deletion (receptor, UniProt P22723-2)
chain: QKSDDDYEDYASNKTWVLTPKVPEGDVTVILNNLLEGYDNKLRPDIGVKPTLIHTDMYVNSIGPVNAINMEYTIDIFFAQTWYDRRLKFNSTIKVLRLNSNMVGKIWIPDTFFRNSKKADAHWITTPNRMLRIWNDGRVLYTLRLTIDAECQLQLHNFPMDEHSCPLEFSSYGYPREEIVYQWKRSSVEVGDTRSWRLYQFSFVGLRNTTEVVKTTSGDYVVMSVYFDLSRRMGYFTIQTYIPCTLIVVLSWVSFWINKDAVPARTSLGITTVLTMTTLSTIARKSLPKVSYVTAMDLFVSVCFIFVFSALVEYGTLHYFVSNRKPSKDKDKKKKNPAPTIDIRPRSATIQMNNATHLQFFCCFEDCRTGAWRHGRIHIRIAKMDSYARIFFPTAFCLFNLVYWVSYLYL

- binding [2]: no binding
B3: octadecapeptide … (residues 424–441) from the TM3–TM4 intracellular loop of the GABAA receptor γ2 subunit (peptide)
peptide: RTGAWRHGRIHIRIAKMD

- binding [3]: binds
- binding [2]: no binding
B4: γ2-GIM E406R variant (peptide, UniProt P22723-2 398-415)
chain: ERDEEYGYRCLDGKDCAS

- binding [3]: binds
- binding [2]: no binding
B5: γ2-GIM L408Q variant (peptide, UniProt P22723-2 398-415)
chain: ERDEEYGYECQDGKDCAS

- binding (GST-GABARAP (mouse)): no binding
B6: full length GFP-γ2-GABAAR E406R variant (receptor, UniProt P22723-2 39-466)
chain: QKSDDDYEDYASNKTWVLTPKVPEGDVTVILNNLLEGYDNKLRPDIGVKPTLIHTDMYVNSIGPVNAINMEYTIDIFFAQTWYDRRLKFNSTIKVLRLNSNMVGKIWIPDTFFRNSKKADAHWITTPNRMLRIWNDGRVLYTLRLTIDAECQLQLHNFPMDEHSCPLEFSSYGYPREEIVYQWKRSSVEVGDTRSWRLYQFSFVGLRNTTEVVKTTSGDYVVMSVYFDLSRRMGYFTIQTYIPCTLIVVLSWVSFWINKDAVPARTSLGITTVLTMTTLSTIARKSLPKVSYVTAMDLFVSVCFIFVFSALVEYGTLHYFVSNRKPSKDKDKKKKNPAPTIDIRPRSATIQMNNATHLQERDEEYGYRCLDGKDCASFFCCFEDCRTGAWRHGRIHIRIAKMDSYARIFFPTAFCLFNLVYWVSYLYL
